Reference: the supplement of paper PMC6206098
± gives the uncertainty stated by the source. The sequences are guide strands of siRNAs; only the seed at positions 2 to 7 varies.

How the values were obtained:
3LL = experiment: cell viability relative to siNT1 control; higher = less toxic; details: concentration: 10 nM; 96 h; Mus musculus;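 also: Luminescence-based viability of cells reverse transfected in 384-well plates with lipid-complexed siRNAs built on a non-toxic 19mer backbone whose passenger strand carries 2′-O-methyl groups at positions 1 and 2, triplicates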
H460 = experiment: cell viability relative to lipid-only control; HeyA8 human ovarian and H460 human lung cancer; M565 mouse liver and 3LL mouse lung cancer; siNT1 is a non-toxic control siRNA; higher = less toxic; details: concentration: 10 nM; 96 h; Homo sapiens
HeyA8 = experiment: as above; details: concentration: 10 nM; 96 h; Homo sapiens
M565 = experiment: as above; details: concentration: 10 nM; 96 h; Mus musculus
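For cell viability relative to lipid-only control in this document: reverse lipid transfection in 384-well plates, in triplicate, of duplexes on a non-toxic 19mer backbone with passenger strand 2′-O-methylated at positions 1 and 2, luminescence viability read-out.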

Sequence	cell viability (3LL) [%]	cell viability (H460) [%]	cell viability (HeyA8) [%]	cell viability (M565) [%]
UAUGCGAACAUGUAAACCAAA	107 ± 12	76.7 ± 3.1	99.7 ± 8.9	90.4 ± 18
UGCUCUAACAUGUAAACCAAA	82.4 ± 14	85.2 ± 18	79.4 ± 6.4	67.3 ± 5
UAGUGUGACAUGUAAACCAAA	93.3 ± 8	56 ± 1.1	55.8 ± 4.5	57.9 ± 8.9
UAAUGUGACAUGUAAACCAAA	110 ± 12	73.6 ± 4	84.4 ± 11	91.2 ± 25
UGAGUUUACAUGUAAACCAAA	86.5 ± 15	66.7 ± 3.7	49.5 ± 4.8	31.4 ± 3
UGCGCUUACAUGUAAACCAAA	79.9 ± 8.9	28.1 ± 2.1	31.3 ± 3.6	55 ± 6.1
UGGAAGUACAUGUAAACCAAA	30.6 ± 3.2	54.9 ± 9.7	46.7 ± 7.7	10.1 ± 2.6
UUACCGAACAUGUAAACCAAA	84.2 ± 10	64.9 ± 4.9	89.2 ± 2	100 ± 21
UAUUCCUACAUGUAAACCAAA	58.3 ± 3	63.8 ± 9.8	67.5 ± 11	89.4 ± 6.6
UUAACCCACAUGUAAACCAAA	31.5 ± 5.7	41.8 ± 4.6	65.9 ± 7.4	53.2 ± 6
UAGGAGGACAUGUAAACCAAA	5.33 ± 2	43.2 ± 2.2	7.04 ± 0.11	10.5 ± 2.1
UUGGAAGACAUGUAAACCAAA	68.9 ± 10	78.4 ± 4.5	59.4 ± 1.5	53.6 ± 8.6
UCAUGGAACAUGUAAACCAAA	89.4 ± 14	22.5 ± 2.4	41.3 ± 3	25 ± 7.2
UUAUCAUACAUGUAAACCAAA	45.7 ± 5.8	74.9 ± 10	82.7 ± 9.3	68.5 ± 6.3
UGGUUUCACAUGUAAACCAAA	90.6 ± 7.8	94.9 ± 8.7	70.7 ± 6.3	68.3 ± 12
UCAAAGUACAUGUAAACCAAA	81.2 ± 14	59.9 ± 15	55.4 ± 2.3	41.1 ± 4.3
UCCCGAAACAUGUAAACCAAA	109 ± 18	79.3 ± 16	94.6 ± 12	90 ± 35
UUUCACCACAUGUAAACCAAA	49.4 ± 4.3	39.9 ± 1.9	48 ± 4.4	60 ± 7
UUGGUACACAUGUAAACCAAA	75.4 ± 4.5	51 ± 8	39.1 ± 3	82.2 ± 13
UGUUUUAACAUGUAAACCAAA	85.6 ± 5.4	63.3 ± 4.2	88.7 ± 4.4	99.5 ± 20
UAUCCAAACAUGUAAACCAAA	112 ± 6.4	91.4 ± 14	98.2 ± 11	80 ± 4.2
UGGACUAACAUGUAAACCAAA	67.9 ± 4	80.3 ± 14	85.4 ± 6.7	22.9 ± 5.6
UCUUGGGACAUGUAAACCAAA	95.8 ± 9.4	24.3 ± 5.2	9.26 ± 1.2	49.5 ± 6.7
UCCAUACACAUGUAAACCAAA	79.6 ± 17	54.9 ± 1.7	74.2 ± 7	76.1 ± 13
UAUCGAAACAUGUAAACCAAA	116 ± 12	81.8 ± 19	97.9 ± 6.5	103 ± 21
UAUAGUUACAUGUAAACCAAA	110 ± 9.8	82.6 ± 23	91.2 ± 7.1	75.5 ± 23
UCUGUGGACAUGUAAACCAAA	82 ± 12	37.2 ± 2.5	62.1 ± 5.3	26.2 ± 4.8
UCACCAGACAUGUAAACCAAA	82.5 ± 14	39.8 ± 2.7	83.5 ± 11	49.4 ± 4.7
UCCUGCCACAUGUAAACCAAA	11.9 ± 2.1	43.7 ± 4.7	20 ± 2.7	3.23 ± 0.83
UCUAACAACAUGUAAACCAAA	95.3 ± 15	65.2 ± 9.9	84.9 ± 7	78.7 ± 17
